# PubChem BioAssay (Tox21)
# “And” between values parts separate entries of the source, which are not always exact repeats. Equal values may be shown once. This list was built around the results that the source calls inconclusive (neither active nor inactive); the mix of calls is not that of the screen. For some assays here: Where the call is inconclusive, the potency comes from a doubtful curve fit. Some compounds were tested as several samples or in several runs, with calls that do not always agree. The source made the active and inactive calls. Unless noted, calls come from the whole dose curve; as a rule, active = well fitted curve in the direction sought with a large enough effect in the repeat runs; inconclusive = weak or mixed curves; inactive = no such curve, though single readings can be large; an effect the other way counts as inactive or inconclusive.
# Legend:
# [1] = qHTS assay to identify aromatase inhibitors - cell viability counter screen (AID 743084); settings: MCF-7 aro ERE viability, CellTiter-Fluor, 24 h; activity change, negative = cytotoxicity: at 70.3 µM (top of the series);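 note: cells stimulated with testosterone during compound exposure; potency is the fitted concentration of half-maximal effect; nearly all actives have a fitted effect of over 55% in size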
# [2] = qHTS assay for small molecule agonists of the antioxidant response element (ARE) signaling pathway (AID 743202; active = well fitted activation curve with a large enough effect in the signal ratio in the repeat runs, not every such curve was filed as active; inconclusive = weak or mixed curves, or effect the other way; inactive = no such curve, though single readings can be large or run the other way; the % refers to the signal ratio; note: potency is the fitted concentration of half-maximal effect); settings: HepG2 ARE-bla reporter, beta-lactamase FRET, 16 h; activation: at 73.3 µM (top of the series) unless noted
# Outline: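 Steps: seed ARE-bla HepG2 cells (2,000/well); incubate 5 h at 37 C; add compounds by pin tool; incubate 16 h at 37 C; add FRET substrate; read fluorescence after 2 h at RT.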
# [3] = qHTS assay to identify small molecule agonists of the peroxisome proliferator-activated receptor delta (PPARd) signaling pathway - cell viability counter screen (AID 743211); settings: PPARd-bla HEK293H viability, CellTiter-Glo luminescence, 17 h; activity change, negative = cytotoxicity: at 62.6 µM (top of the series); note: nearly all actives have a fitted effect of over 55% in size; note: potency is the fitted concentration of half-maximal effect
# Outline: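 Counter screen for cytotoxicity run in parallel with the PPARd reporter screen. Beta-lactamase reporter HEK293H cells exposed to compounds 17 h; ATP-based CellTiter-Glo luminescence quantified viability.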
# [4] = molecular target: Peroxisome proliferator-activated receptor delta (Homo sapiens) (UniProt Q03181); experiment: qHTS assay to identify small molecule antagonists of the peroxisome proliferator-activated receptor delta (PPARd) signaling pathway (AID 743215; active = well fitted inhibition curve with a large enough effect in the signal ratio in the repeat runs, not every such curve was filed as active; inconclusive = weak or mixed curves, or effect the other way; inactive = no such curve, though single readings can be large or run the other way; the % refers to the signal ratio;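 note: cells stimulated with agonist L165041 at 300 nM final during compound exposure; % is set by controls: 0 for no effect and ±100 for the full control effect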); settings: HEK293H PPARd-UAS-bla, beta-lactamase FRET ratio, antagonist, 17 h; ratio activity, negative = inhibition: at 62 µM (top of the series) unless noted
# Outline: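 Plated HEK293H PPARd-bla cells rested 5 h at 37 C and 5% CO2. Compound, then agonist L165041 at 300 nM final, was added; 17 h at 37 C followed. Substrate loading, 2 h room temperature, fluorescence measured.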
# [5] = molecular target: Vitamin D3 receptor (Homo sapiens) (UniProt P11473); experiment: qHTS assay to identify small molecule antagonists of the vitamin D receptor (VDR) signaling pathway (AID 743223; active = well fitted inhibition curve with a large enough effect in the signal ratio in the repeat runs, not every such curve was filed as active; inconclusive = weak or mixed curves, or effect the other way; inactive = no such curve, though single readings can be large or run the other way; the % refers to the signal ratio; note: % is set by controls: 0 for no effect and ±100 for the full control effect); settings: VDR-UAS-bla HEK293T, beta-lactamase FRET ratio, 16 h; activity change, negative = inhibition: at 61 µM (top of the series) unless noted
# Outline: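 Cells carrying a VDR-driven beta-lactamase reporter (VDR-bla) were co-treated with compound and 3 nM final 1alpha,25-dihydroxyvitamin D3 for 16 h at 37C; reporter activity was measured as FRET substrate fluorescence after 2 h at room temperature.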
# [6] = molecular target: Peroxisome proliferator-activated receptor delta (Homo sapiens) (UniProt Q03181); experiment: qHTS assay to identify small molecule agonists of the peroxisome proliferator-activated receptor delta (PPARd) signaling pathway (AID 743212; calls by dose curve; note: % is set by controls: 0 for no effect and ±100 for the full control effect); settings: HEK293H PPARd-UAS-bla, beta-lactamase FRET ratio, 17 h; activation: at 62.6 µM (top of the series) unless noted
# Outline: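 Cells expressing a UAS-driven beta-lactamase reporter (PPARd-bla HEK293H) were given test compounds after a 5 h settle and kept at 37 C. Reporter activity was then measured as FRET fluorescence using LiveBLAzer B/G substrate.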
# [7] = qHTS assay to identify small molecule antagonists of the peroxisome proliferator-activated receptor delta (PPARd) signaling pathway - cell viability counter screen (AID 743213); settings: PPARd-bla HEK293H viability, CellTiter-Glo luminescence, 17 h; viability change, negative = cytotoxic: at 62 µM (top of the series) unless noted; note: nearly all actives have a fitted effect of over 50% in size; note: potency is the fitted concentration of half-maximal effect
# Outline: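 Viability counter-screen, qHTS format: PPARd-bla HEK293H, L165041 300 nM final, 17 h compound exposure at 37 C, CellTiter-Glo luminescence after 30 min RT.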
# [8] = molecular target: Bile acid receptor (Homo sapiens) (UniProt Q96RI1); experiment: qHTS assay to identify small molecule antagonists of the farnesoid-X-receptor (FXR) signaling pathway (AID 743217; active = well fitted inhibition curve with a large enough effect in the signal ratio in the repeat runs, not every such curve was filed as active; inconclusive = weak or mixed curves, or effect the other way; inactive = no such curve, though single readings can be large or run the other way; the % refers to the signal ratio; note: potency is the fitted concentration of half-maximal effect); settings: HEK293T FXR-UAS-bla, beta-lactamase ratio, CDCA-stimulated, 16 h; activity change, negative = inhibition: at 62.6 µM (top of the series) unless noted
# Outline: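 Screen of the Tox21 10K library in quantitative HTS format using FXR-UAS-bla HEK 293T reporter cells. Agonist chenodeoxycholic acid, 50 uM final, added with compounds; 16 h incubation at 37 °C; beta-lactamase FRET fluorescence measured.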
# [9] = molecular target: Aryl hydrocarbon receptor (Homo sapiens) (UniProt P35869); experiment: qHTS assay to identify small molecule that activate the aryl hydrocarbon receptor (AhR) signaling pathway (AID 743085); note: nearly all actives have a fitted effect of over 15% in size; note: potency is the fitted concentration of half-maximal effect
# Outline: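 Compounds were tested in HepG2 hepatocellular carcinoma cells harbouring a stably integrated luciferase gene under control of 20 DREs. Increased reporter signal after 24 h treatment at 37C was taken as AhR activation.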
# [10] = qHTS assay to identify small molecule that activate the aryl hydrocarbon receptor (AhR) signaling pathway - cell viability counter screen (AID 743086); note: potency is the fitted concentration of half-maximal effect; nearly all actives have a fitted effect of over 45% in size
# Outline: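 HepG2-AhR-luc (HG2L7.5c1) cells, 4000/well, were preincubated 5 h at 37C, exposed to compound in qHTS format for 24 hr at 37C, then given CellTiter-Fluor for 30 min; viability was read as fluorescence in the reporter wells.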
# [11] = molecular target: Peroxisome proliferator-activated receptor gamma (Homo sapiens) (UniProt P37231); experiment: qHTS assay to identify small molecule agonists of the peroxisome proliferator-activated receptor gamma (PPARg) signaling pathway (AID 743094; active = well fitted activation curve with a large enough effect in the signal ratio in the repeat runs, not every such curve was filed as active; inconclusive = weak or mixed curves, or effect the other way; inactive = no such curve, though single readings can be large or run the other way; the % refers to the signal ratio; note: % is set by controls: 0 for no effect and ±100 for the full control effect); settings: HEK293H PPARg-UAS-bla, beta-lactamase FRET ratio, 17 h; activation: at 57 µM (top of the series) unless noted
# Outline: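 Reporter activation was scored by fluorescence of cleaved LiveBLAzer B/G substrate (1 h, room temperature) in PPARg-bla HEK293H cells previously treated 17 h at 37C with DMSO-dissolved compounds.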
# [12] = molecular target: Peroxisome proliferator-activated receptor gamma (Homo sapiens) (UniProt P37231); experiment: qHTS assay to identify small molecule antagonists of the peroxisome proliferator-activated receptor gamma (PPARg) signaling pathway (AID 743191; calls by dose curve; note: nearly all actives have a fitted effect of over 30% in size; note: potency is the fitted concentration of half-maximal effect); settings: HEK293H PPARg-UAS-bla, beta-lactamase ratio, antagonist, 17 h
# Outline: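 GeneBLAzer PPARg UAS-bla HEK293H cells carrying a UAS-driven beta-lactamase reporter were plated at 3000 cells/well, preincubated 5 h at 37C, then given compound for 17 h at 37C; LiveBLAzer B/G FRET substrate was read after 1 h at room temperature.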
# [13] = molecular target: Vitamin D3 receptor (Homo sapiens) (UniProt P11473); experiment: qHTS assay to identify small molecule agonists of the vitamin D receptor (VDR) signaling pathway (AID 743222; calls by dose curve; note: potency is the fitted concentration of half-maximal effect); settings: HEK293T VDR-UAS-bla, beta-lactamase FRET ratio, 16 h; activation: at 63.5 µM (top of the series) unless noted
# Outline: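 Fluorescence from cleaved LiveBLAzer B/G FRET substrate served as readout. VDR-bla cells had been treated 16 h at 37C with test compounds in DMSO, following a 4 h settling period, and substrate was loaded for 2 h at RT.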
# [14] = molecular target: Bile acid receptor (Homo sapiens) (UniProt Q96RI1); experiment: qHTS assay to identify small molecule agonists of the farnesoid-X-receptor (FXR) signaling pathway (AID 743220; active = well fitted activation curve with a large enough effect in the signal ratio in the repeat runs, not every such curve was filed as active; inconclusive = weak or mixed curves, or effect the other way; the % refers to the signal ratio; note: % is set by controls: 0 for no effect and ±100 for the full control effect); settings: HEK293T FXR-UAS-bla, beta-lactamase FRET ratio, 16 h; activation: at 62.6 µM (top of the series) unless noted
# Outline: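 FXR-UAS-bla HEK 293T cells carrying a UAS-driven beta-lactamase reporter were plated for 5 h at 37C/5% CO2, then exposed to DMSO-dissolved Tox21 10K compounds for 16 h at 37C. A LiveBLAzer B/G FRET substrate was loaded for 2 h at room temperature before fluorescence reading.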
# [15] = qHTS assay to identify small molecule antagonists of the peroxisome proliferator-activated receptor gamma (PPARg) signaling pathway - cell viability counter screen (AID 743194); settings: PPARg-bla HEK293H viability, CellTiter-Glo luminescence, 17 h, co-treated with 50 nM rosiglitazone; activity change, negative = cytotoxicity: at 62.6 µM (top of the series); note: potency is the fitted concentration of half-maximal effect; nearly all actives have a fitted effect of over 55% in size
# Outline: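 PPARg-UAS-bla HEK293H cells were plated, rested 5 h at 37 C, then treated with compounds plus rosiglitazone (50 nM final) for 17 h at 37 C; viability was then read by CellTiter-Glo luminescence after 30 min at room temperature.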
# [16] = qHTS assay for small molecule activators of the heat shock response signaling pathway (AID 743210; active = well fitted activation curve with a large enough effect in the signal ratio in the repeat runs, with a control signal flat, not every such curve was filed as active; inconclusive = weak or mixed curves; the % refers to the signal ratio); settings: HeLa HSE-bla reporter, beta-lactamase ratio, 5 h; activation: at 62.6 µM (top of the series)
# Outline: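 Activation of heat shock element-controlled beta-lactamase expression is measured in HeLa cells by LiveBLAzer FRET fluorescence, with compound exposure lasting 5 h at 37 C and substrate loading 2.5 h at room temperature.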
# [17] = qHTS assay to identify small molecule antagonists of the farnesoid-X-receptor (FXR) signaling pathway - cell viability counter screen (AID 743221; active = well fitted cell-killing curve with a large enough effect in the repeat runs, not every such curve was filed as active; inconclusive = weak or mixed curves, or effect the other way; inactive = no such curve, though single readings can be large or run the other way; note: potency is the fitted concentration of half-maximal effect; nearly all actives have a fitted effect of over 50% in size); settings: FXR-bla HEK293T viability, CellTiter-Glo luminescence, 16 h; activity change, negative = cytotoxicity: at 62.6 µM (top of the series)
# Outline: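 Multiplexed counter screen: viability of FXR-bla HEK 293T cells under agonist stimulation by chenodeoxycholic acid (50 uM, final) and test compound for 16 h at 37 C, measured by CellTiter-Glo luminescence in the reporter wells.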
# [18] = ratio activity, negative = inhibition: at 62.6 µM (top of the series) unless noted
# Tags give direction and shape of the fitted curve or compound fluorescence and quenching.
# Chain of UniProt Q96RI1 (Q96RI1 whole entry, looked up): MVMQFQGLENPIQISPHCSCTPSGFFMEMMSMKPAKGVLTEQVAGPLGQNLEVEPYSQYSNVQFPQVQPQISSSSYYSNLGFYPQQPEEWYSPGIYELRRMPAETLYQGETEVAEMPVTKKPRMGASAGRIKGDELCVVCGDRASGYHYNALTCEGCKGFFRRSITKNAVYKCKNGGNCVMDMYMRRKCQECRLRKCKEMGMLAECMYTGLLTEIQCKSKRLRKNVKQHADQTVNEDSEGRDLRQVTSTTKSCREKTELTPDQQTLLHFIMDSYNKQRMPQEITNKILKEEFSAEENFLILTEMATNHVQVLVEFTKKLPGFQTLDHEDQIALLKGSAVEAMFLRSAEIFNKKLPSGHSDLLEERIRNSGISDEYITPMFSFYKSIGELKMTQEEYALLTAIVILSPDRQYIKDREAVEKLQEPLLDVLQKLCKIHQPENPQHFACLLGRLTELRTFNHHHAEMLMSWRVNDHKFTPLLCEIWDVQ
# Chain of UniProt P37231 (P37231 whole entry, looked up): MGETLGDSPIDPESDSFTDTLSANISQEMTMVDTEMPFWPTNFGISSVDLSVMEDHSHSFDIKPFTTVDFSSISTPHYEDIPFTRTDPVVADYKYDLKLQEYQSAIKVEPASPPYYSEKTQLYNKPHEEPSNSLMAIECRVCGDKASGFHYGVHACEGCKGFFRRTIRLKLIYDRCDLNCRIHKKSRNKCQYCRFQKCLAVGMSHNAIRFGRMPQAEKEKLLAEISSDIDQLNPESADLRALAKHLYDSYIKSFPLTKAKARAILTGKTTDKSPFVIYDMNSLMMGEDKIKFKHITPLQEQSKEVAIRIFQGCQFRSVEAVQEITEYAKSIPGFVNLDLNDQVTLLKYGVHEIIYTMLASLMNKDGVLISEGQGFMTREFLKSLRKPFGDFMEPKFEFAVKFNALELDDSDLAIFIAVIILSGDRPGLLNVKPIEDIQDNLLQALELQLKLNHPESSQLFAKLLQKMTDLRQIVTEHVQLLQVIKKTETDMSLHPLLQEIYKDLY
# Chain of UniProt P35869 (P35869 whole entry, looked up): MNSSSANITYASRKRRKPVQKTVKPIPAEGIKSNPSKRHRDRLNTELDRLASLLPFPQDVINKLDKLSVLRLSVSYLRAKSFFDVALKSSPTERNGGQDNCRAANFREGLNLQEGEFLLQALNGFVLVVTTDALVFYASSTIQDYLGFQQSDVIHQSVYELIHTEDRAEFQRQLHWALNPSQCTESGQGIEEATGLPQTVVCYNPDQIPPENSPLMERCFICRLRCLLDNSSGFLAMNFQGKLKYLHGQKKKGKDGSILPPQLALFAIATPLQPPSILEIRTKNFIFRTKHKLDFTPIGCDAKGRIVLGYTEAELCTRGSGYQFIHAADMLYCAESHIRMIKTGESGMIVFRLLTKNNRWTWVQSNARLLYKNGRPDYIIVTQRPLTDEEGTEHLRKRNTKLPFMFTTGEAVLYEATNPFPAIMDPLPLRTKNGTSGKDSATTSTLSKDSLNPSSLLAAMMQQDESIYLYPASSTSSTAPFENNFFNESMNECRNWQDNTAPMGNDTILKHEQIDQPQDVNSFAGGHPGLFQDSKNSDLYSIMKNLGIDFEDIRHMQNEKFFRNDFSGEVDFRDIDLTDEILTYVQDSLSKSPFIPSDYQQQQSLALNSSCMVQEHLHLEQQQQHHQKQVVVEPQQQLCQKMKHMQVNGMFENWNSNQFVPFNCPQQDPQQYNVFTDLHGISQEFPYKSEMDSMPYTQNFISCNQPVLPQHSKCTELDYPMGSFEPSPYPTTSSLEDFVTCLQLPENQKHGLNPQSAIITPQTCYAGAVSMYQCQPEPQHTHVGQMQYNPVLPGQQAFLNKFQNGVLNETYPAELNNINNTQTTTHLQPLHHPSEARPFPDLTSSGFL
# Chain of UniProt P11473 (P11473 whole entry, looked up): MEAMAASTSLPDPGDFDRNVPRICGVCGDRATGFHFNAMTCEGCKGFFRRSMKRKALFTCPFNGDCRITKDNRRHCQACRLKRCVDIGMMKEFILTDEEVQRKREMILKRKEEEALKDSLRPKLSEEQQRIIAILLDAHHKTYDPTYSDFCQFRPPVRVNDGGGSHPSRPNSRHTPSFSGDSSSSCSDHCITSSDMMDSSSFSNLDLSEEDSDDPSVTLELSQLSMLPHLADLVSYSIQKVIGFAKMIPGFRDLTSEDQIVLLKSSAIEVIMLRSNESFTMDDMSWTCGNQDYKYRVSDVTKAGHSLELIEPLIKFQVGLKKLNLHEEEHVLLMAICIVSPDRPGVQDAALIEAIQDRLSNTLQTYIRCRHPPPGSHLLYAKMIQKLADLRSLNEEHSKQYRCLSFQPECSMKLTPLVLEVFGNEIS
# Chain of UniProt Q03181 (Q03181 whole entry, looked up): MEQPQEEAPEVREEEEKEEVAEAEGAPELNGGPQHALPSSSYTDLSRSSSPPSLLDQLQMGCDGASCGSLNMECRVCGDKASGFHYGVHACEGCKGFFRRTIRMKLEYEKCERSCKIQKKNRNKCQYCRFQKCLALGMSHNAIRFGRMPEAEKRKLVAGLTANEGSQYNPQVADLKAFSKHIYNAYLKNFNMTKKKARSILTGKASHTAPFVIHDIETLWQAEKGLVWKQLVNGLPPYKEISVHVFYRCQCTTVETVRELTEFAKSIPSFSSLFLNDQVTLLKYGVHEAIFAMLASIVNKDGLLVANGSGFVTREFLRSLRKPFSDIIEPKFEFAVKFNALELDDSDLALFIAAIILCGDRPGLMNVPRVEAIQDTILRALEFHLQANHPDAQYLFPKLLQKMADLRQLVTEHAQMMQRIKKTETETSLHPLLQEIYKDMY
smiles,measurement,setting,value
CC(CCC(=O)O)(c1ccc(O)cc1)c1ccc(O)cc1,Potency,[1],"inconclusive: 61.8 µM [rising, partial curve, poor fit]"
same,Potency,[2],inactive
same,Potency,[3],inactive
same,"ratio activity, negative = inhibition",[4],inconclusive: 9.13% [at 80.4 µM]
same,"activity change, negative = inhibition",[5],inconclusive: 24.1% [at 78.8 µM]
Clc1cc(Cl)c(Cl)nc1Cl,Potency,[1],"inconclusive: 27.4 µM [cytotoxic, single point]"
same,activation,[6],inconclusive: -2.88%
same,Potency,[7],inactive
same,Potency,[8],inactive
COc1cc(C(C)=O)ccc1OCCCN1CCC(c2noc3cc(F)ccc23)CC1,Potency,[9],inactive
same,Potency,[10],"inconclusive: 23.7 µM [falling, partial curve]"
same,activation,[11],inconclusive: -15.2%
same,"ratio activity, negative = inhibition",[12]; [18],inconclusive: 16.1%
same,activation,[2],inconclusive: 10.6%
same,"ratio activity, negative = inhibition",[4],inconclusive: 10.1%
same,Potency,[13],"inconclusive: 1.68 µM [rising, full curve, poor fit]"
Cc1ccc2oc(CN(Cc3ccccc3)C(=O)Nc3c(F)cc(F)cc3F)c(-c3ccc(Cl)cc3)c2c1,Potency,[9],"inconclusive: 26.5 µM [activator, partial curve, poor fit]"
same,activation,[11],inconclusive: 18.8%
same,Potency,[12]; [18],"inconclusive: 47.4 µM [activator, partial curve, poor fit]"
same,activation,[2],inconclusive: 1.01%
same,Potency,[8],inconclusive: 7.52 µM [fluorescent]
same,Potency,[14],inactive
same,Potency,[13],inconclusive: 47.4 µM [activator]
Nc1ccc(Cl)cc1[N+](=O)[O-],Potency,[9],inconclusive: 67.9 µM [activator]
same,"ratio activity, negative = inhibition",[12]; [18],inconclusive: -9.52%
O=C(c1ccccc1)c1ccc(O)cc1O,Potency,[1],"inconclusive: 69.9 µM [cytotoxic, single point]"
same,Potency,[2],inconclusive: 31.2 µM and active: 30.6 µM
same,Potency,[6],inactive
Nc1nc(=S)c2[nH]cnc2[nH]1,Potency,[9],"inconclusive: 33.5 µM [activator, single point] and inconclusive: 29.9 µM [activator, partial curve] and active: 61.1 µM"
same,activation,[11],inconclusive: -15.4%
same,"ratio activity, negative = inhibition",[12]; at 62.6 µM (top of the series),inactive: -16.7%
same,Potency,[12]; [18],"inconclusive: 0.436 µM [fluorescent, full curve, poor fit]"
same,"ratio activity, negative = inhibition",[12]; [18],inconclusive: 17.3%
same,Potency,[15],"inconclusive: 169 nM [cytotoxic, full curve, poor fit] and inconclusive: 436 nM [cytotoxic, full curve, poor fit] and active: 2.98 µM"
same,Potency,[16],inactive
same,Potency,[3],"inconclusive: 7.56 µM [cytotoxic, partial curve, poor fit] and inconclusive: 6.68 µM [cytotoxic, full curve]"
same,Potency,[7],"inconclusive: 6.74 µM [cytotoxic, partial curve] and inconclusive: 4.9 µM [cytotoxic, full curve, poor fit] and inconclusive: 8.41 µM [cytotoxic, full curve, poor fit]"
same,Potency,[17],"inconclusive: 3.09 µM [falling, partial curve, poor fit] and inconclusive: 16.8 µM [falling, partial curve, poor fit]"
